Laboratory results published in US12338279B2, “Selective and potent inhibitory antibodies of myostatin activation” (SCHOLAR ROCK, INC., priority 2022, dated 2025).

Tested on: biotinylated human pro-myostatin
Test: Biacore 8k SPR binding affinity, human pro-myostatin
Excerpt: The Biacore™ 8 k SPR system was utilized to evaluate the binding affinity of myostatin antibodies to biotinylated human, murine, and cyno pro-myostatin. Biotin CAPture kit and sensor chips (Cytiva) were utilized in these experiments to immobilize the various antigens, followed by flowing a range of concentrations of each of the test antibodies.

Molecule	Ka	Kd (1/s)
Ab138: anti-pro/latent myostatin antibody; CDRs in Tables 2d-f, variable domains Table 3, chains Table 4 (antibody) heavy: EVQLVESGGGLVQPGGSLRLSCAASGFTFTSYGMSWVRQAPGKGLELVASITGSKGETYYPDSVKGRFTISRDNAKNSLYLQMNSLRAEDTAVYYCARDLLVRFLEWSHYYGMDVWGQGTTVTVSSASTKGPSVFPLAPCSRSTSESTAALGCLVKDYFPEPVTVSWNSGALTSGVHTFPAVLQSSGLYSLSSVVTVPSSSLGTKTYTCNVDHKPSNTKVDKRV[human IgG4 Fc with S228P (EU numbers) left out] light: DIVMTQSPLSLPVTPGEPASISCRSSQSLLHSSGHNFLHWYLQKPGQSPQLLIYETSNRAPGIPDRFSGSGSGTDFTLKISRVEAEDVGVYYCQQATQFPRPFGGGTKVEIKRTVAAPSVFIFPPSDEQLKSGTASVVCLLNNFYPREAKVQWKVDNALQSGNSQESVTEQDSKDSTYSLSSTLTLSKADYEKHKVYACEVTHQGLSSPVTKSFNRGEC	5.27e+06 M⁻¹ s⁻¹	0.000577 s⁻¹
Ab139: anti-pro/latent myostatin antibody; CDRs in Tables 2d-f, variable domains Table 3, chains Table 4 (antibody) heavy: EVQLVESGGGLVQPGGSLRLSCAASGFTFSSYGMSWVRQAPGKGLELVASFTGSGAAYYPDSVKGRFTISRDNAKNSLYLQMNSLRAEDTAVYYCARDLLIRFLEWSHYYGMDVWGQGTTVTVSSASTKGPSVFPLAPCSRSTSESTAALGCLVKDYFPEPVTVSWNSGALTSGVHTFPAVLQSSGLYSLSSVVTVPSSSLGTKTYTCNVDHKPSNTKVDKRV[human IgG4 Fc with S228P (EU numbers) left out] light: DIVMTQSPLSLPVTPGEPASISCRSSQSLLHSSGHNFLHWYLQKPGQSPQLLIYESSNRVSGVPDRFSGSGSGTDFTLKISRVEAEDVGVYYCQQQTQYPPTFGGGTKVEIKRTVAAPSVFIFPPSDEQLKSGTASVVCLLNNFYPREAKVQWKVDNALQSGNSQESVTEQDSKDSTYSLSSTLTLSKADYEKHKVYACEVTHQGLSSPVTKSFNRGEC	1.9e+07 M⁻¹ s⁻¹	0.0023 s⁻¹
Ab140: anti-pro/latent myostatin antibody; CDRs in Tables 2d-f, variable domains Table 3, chains Table 4 (antibody) heavy: EVQLVESGGGLVQPGGSLRLSCAASGFTFSSYGMSWVRQAPGKGLELVASFTGSGGTYYPDSVKGRFTISRDNAKNSLYLQMNSLRAEDTAVYYCARDNLIRFLEWSHYYGMDVWGQGTTVTVSSASTKGPSVFPLAPCSRSTSESTAALGCLVKDYFPEPVTVSWNSGALTSGVHTFPAVLQSSGLYSLSSVVTVPSSSLGTKTYTCNVDHKPSNTKVDKRV[human IgG4 Fc with S228P (EU numbers) left out] light: DIVMTQSPLSLPVTPGEPASISCRSSQSLLHSSGHNFLHWYLQKPGQSPQLLIYEVSNRESGVPDRFSGSGSGTDFTLKISRVEAEDVGVYYCQQQTQYPPTFGGGTKVEIKRTVAAPSVFIFPPSDEQLKSGTASVVCLLNNFYPREAKVQWKVDNALQSGNSQESVTEQDSKDSTYSLSSTLTLSKADYEKHKVYACEVTHQGLSSPVTKSFNRGEC	6.53e+06 M⁻¹ s⁻¹	0.000711 s⁻¹
